This note sets out measurements from the supplement of paper PMC11417369.

± gives the standard deviation of the averaged measurements. Some of the results follow.

This experiment deals with PfAP2-LT AP2 domain (GST-tagged). Put plainly: gcPBM binding intensity (ln(normalized median fluorescence intensity)); higher = stronger DNA binding. The procedure, abridged: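 The highest Masliner-normalised natural-log median intensity across replicate spots of either probe orientation is reported as binding intensity. GST-tagged P. falciparum DNA-binding domains expressed in E. coli were applied for 1 h to an Agilent 4 × 180k array of primer-extended double-stranded 36-bp intergenic genomic probes plus negative controls, and bound protein was detected with Alexa488 anti-GST antibody and scanned at 488 nm.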
As for “ATATAACGAATAATTACACACTATAAAAAAAGATCT [CACACA_site2862]”, the “gcPBM binding intensity (ln)” value worked out at 9.01 ± 0.47.
Consider “CTTTTAAATTATTTTTGTACATAATTATATATATAT [XGTACX_site4128]”, for which the “gcPBM binding intensity (ln)” value was found to be 8.73 ± 0.47.
The value for “AACTATAAATATAAATGTACACATATGTAATATATA [XGTACX_site6085]” was 8.87 ± 0.37; that for “TACTGTTTAAAATATAAACACACATTGTTTGCTTTA [CACACA_site8358]” was 8.86 ± 0.47; that for “AAAAGGAAAATTTTCTTAGTAACTGCATTAAGAGAT [GTGCAC_negctrl_site675]” was 8.68 ± 0.47.
Consider “TGGAAAAATAGGCACACACACATATATACATATATA [CACACA_site1297]”, for which the “gcPBM binding intensity (ln)” value is 9.72 ± 0.33.
The value for “TTTTAATAACCAATCCGTACATATAATCTTTATATT [XGTACX_site536]” was 8.54 ± 0.57.
Consider “TTATTATATTCTCCTTCACACACAAAAATATTTCAT [CACACA_site8738]”, for which the “gcPBM binding intensity (ln)” value was 9.15 ± 0.38.
The value for “TGAAAAATTACAAAAATAATAAAATGAAATAATAAA [GTGCAC_negctrl_site53]” was 8.6 ± 0.54; that for “TAAAAGTTATAAGAGTGTACGTATATTTATATATCA [XGTACX_site2972]” was 8.63 ± 0.35.
In the case of “AGGACTAATATTTGAACACACATATAACATATACAT [CACACA_site7803]”, the “gcPBM binding intensity (ln)” value was determined as 8.99 ± 0.48.
Consider “CCTCTTTATTTTAATTGTACATTTTTGTAGGTTTTT [XGTACX_site7130]”, for which the “gcPBM binding intensity (ln)” value was found to be 8.9 ± 0.52.
With “ATGTATATATATATATGTACTAATTAGTAATTTACG [XGTACX_site6276]”, the “gcPBM binding intensity (ln)” value turned out to be 9.03 ± 0.52.
Regarding “AAAACAAACCCATTTACACACATAAATAAATCAATT [CACACA_site6126]”, the “gcPBM binding intensity (ln)” value was found to be 9.38 ± 0.3.
The value for “TCCTTTTTTTTGTAATGTACTTAGTTTGGTTATATG [XGTACX_site8208]” was 8.95 ± 0.45.
On to “TATTTACATGTAAAAGGTACACACATTATATATACA [XGTACX_site2157]”, for which the “gcPBM binding intensity (ln)” value came out at 9.1 ± 0.39.
Consider “ATACACTTTTATATATCAATACATTATGTATTAAGT [CACACA_negctrl_site421]”, for which the “gcPBM binding intensity (ln)” value was found to be 8.86 ± 0.35.
Then “TTTATTATTTTTTGTAGTACTTTATATAAAAGTTCT [XGTACX_site4494]”, with 8.52 ± 0.54; and “TTGATTATAATTAGTACACACAAAATACATGCGGGG [CACACA_site2277]”, with 9.455 ± 0.0071; and “AAATATATAATACATATGTAATATGCATATATATAT [GTGCAC_negctrl_site450]”, with 8.98 ± 0.35.
For the sequence “TTTTTATTACTTCTCTGTACTCAGGAAAATAAATAT [XGTACX_site2092]”, the “gcPBM binding intensity (ln)” value amounted to 8.35 ± 0.42.
The value for “TGAATGTAAGAAAATACACACTAGTATAGTAACACC [CACACA_site5131]” was 9.24 ± 0.38.
Then “TAAGGAAAAAGAAAAAGTACATTATATAATAAATAG [XGTACX_site3282]”, with 8.66 ± 0.59; and “CAAATATATGTTTTCACACACAAAAGAAATGAAACC [CACACA_site2162]”, with 9.26 ± 0.46; and “AAAAAAAATAAAATGAATAAATAAGAATTACATATT [CACACA_negctrl_site863]”, with 8.53 ± 0.59.
Then “ATAATATATTATTATAGTACTTTATTTTATTTTATG [XGTACX_site2387]”, with 8.65 ± 0.5; and “GGATAGATCATTTACACACACAAAAAAAAAAAAAAA [CACACA_site2139]”, with 9.21 ± 0.57.
Regarding “AATATATATATACATACATGCATACATATATATATA [TGCATGCA_site784]”, the “gcPBM binding intensity (ln)” value amounted to 8.98 ± 0.35.
Consider “AAAAAGAAGATATATACACACCAAAAAAAAAAAAAA [CACACA_site7471]”, for which the “gcPBM binding intensity (ln)” value was determined as 8.9 ± 0.47.
“TACTATAAAATGGAATGTACACATAAATATATCTAA [XGTACX_site6137]”: the “gcPBM binding intensity (ln)” value was found to be 8.72 ± 0.47.
As to “ATATGATGTAAAAGCACACATATATATATATATATA [CACACA_site4018]”, the “gcPBM binding intensity (ln)” value was 10.075 ± 0.0071.
Regarding “GTTTATAACTATGTGTGTACACATTAATCGTTTTTC [XGTACX_site4364]”, the “gcPBM binding intensity (ln)” value was 9.24 ± 0.54.
As to “AATATATTTATATAGTGTACATTTTTTATATATGTA [XGTACX_site8142]”, the “gcPBM binding intensity (ln)” value came out at 8.69 ± 0.35.
“TATTAATTTTTATTATGTACATAAATAATTTATATT [XGTACX_site5456]”: the “gcPBM binding intensity (ln)” value worked out at 8.56 ± 0.4.
Then “CACATACACATACACATACACACGCATAGAAACATA [CACACA_site2136]”, with 9.71 ± 0.28; and “TTGTATAAATATGTATGTATATAATATATGTAAAGA [TGCATGCA_negctrl_site93]”, with 8.66 ± 0.38; and “AAATCGTGTACATTGACACACATAATTTTTTTTATA [CACACA_site2463]”, with 8.78 ± 0.36.
The value for “GGACACCTTCAAAACACACATACAAATAAATAGAAA [CACACA_site3305]” was 8.97 ± 0.54; that for “ATATAAATATATATATGTACATAATATATTATGTTT [XGTACX_site2806]” was 8.81 ± 0.48.
“AATTTAACCACTAAAAGTACACACATATATACATAT [XGTACX_site8352]”: the “gcPBM binding intensity (ln)” value is 9.15 ± 0.45.
Then “TCCTTTTTACTACTAGTGCATTATTTACAAGGTCCG [GTGCAC_site9441]”, with 8.69 ± 0.52; and “AATGTGTATATATATACACACACATATATATATTTT [CACACA_site8596]”, with 9.54 ± 0.18.
For the sequence “ATATATATAAAATATTATATTAAAAAAAATAAAATA [GTGCAC_negctrl_site87]”, the “gcPBM binding intensity (ln)” value is 8.4 ± 0.55.
The value for “TAGTTTTTTATATATTGTACTTAGAATATATTATAT [XGTACX_site3662]” was 8.65 ± 0.47.
